The record followed here is article PMC12820563.

The other results are listed elsewhere or left out. The list includes weakly bound sequences.

This test deals with T1, MBP-FoxP3dN (UniProt Q99JB6).
T1 sequence: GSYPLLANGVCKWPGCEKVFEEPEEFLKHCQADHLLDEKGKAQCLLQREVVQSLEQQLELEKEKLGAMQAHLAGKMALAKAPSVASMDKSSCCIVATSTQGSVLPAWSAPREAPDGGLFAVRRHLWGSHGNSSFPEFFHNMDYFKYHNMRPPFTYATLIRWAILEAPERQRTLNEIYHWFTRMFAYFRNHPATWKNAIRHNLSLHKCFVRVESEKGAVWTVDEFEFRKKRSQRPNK
Description: PD-seq (MBP pull-down with sequencing). Conditions: 20 mM Tris-HCl pH 7.5, 100 mM NaCl, 1.5 mM MgCl2, 0.4 uM protein, 0.1 uM dsDNA library, 30 min, room temperature, amylose pull-down; high values mean tight binding; double strand, one strand shown.
For the sequence “GATGATTGTTCTCCCAGCTGATGAATTTTTCGCCTCGAGTAAACAAATTTTCCTAATCTTTCTGTTCAAGCGCCATCTAC”, the binding signal (RPM ratio (pull-down/input)) is 0.467.

On to “GATGATTGTTCTCCCAGCTGATGAATTAACGAATTCGAGTAAACAAATTTTCCTAATCTTTCTGTTCAAGCGCCATCTAC”, for which the binding signal (RPM ratio (pull-down/input)) worked out at 0.722.

Regarding “GATGATTGTTCTCCCAGCTGATGAATTTCTGCCATCGAGTAAACAAATTTTCCTAATCTTTCTGTTCAAGCGCCATCTAC”, the binding signal (RPM ratio (pull-down/input)) turned out to be 2.1.

Turning to “GATGATTGTTCTCCCAGCTGATGAATTGTCCAAGTCGAGTAAACAAATTTTCCTAATCTTTCTGTTCAAGCGCCATCTAC”, the binding signal (RPM ratio (pull-down/input)) is 0.196.

With “GATGATTGTTCTCCCAGCTGATGAATTGGCGTATTCGAGTAAACAAATTTTCCTAATCTTTCTGTTCAAGCGCCATCTAC”, the binding signal (RPM ratio (pull-down/input)) was determined as 1.54.

For “GATGATTGTTCTCCCAGCTGATGAATTTACTTAGTCGAGTAAACAAATTTTCCTAATCTTTCTGTTCAAGCGCCATCTAC”, the binding signal (RPM ratio (pull-down/input)) was found to be 0.917.

Take “GATGATTGTTCTCCCAGCTGATGAATTTGCTTGATCGAGTAAACAAATTTTCCTAATCTTTCTGTTCAAGCGCCATCTAC”: the binding signal (RPM ratio (pull-down/input)) stood at 2.2.

Consider “GATGATTGTTCTCCCAGCTGATGAATTCGAGAGTTCGAGTAAACAAATTTTCCTAATCTTTCTGTTCAAGCGCCATCTAC”, for which the binding signal (RPM ratio (pull-down/input)) is 0.381.

Take “GATGATTGTTCTCCCAGCTGATGAATTAACGAGCTCGAGTAAACAAATTTTCCTAATCTTTCTGTTCAAGCGCCATCTAC”: the binding signal (RPM ratio (pull-down/input)) was 0.193.

For the sequence “GATGATTGTTCTCCCAGCTGATGAATTCGGTGTTTCGAGTAAACAAATTTTCCTAATCTTTCTGTTCAAGCGCCATCTAC”, the binding signal (RPM ratio (pull-down/input)) is 1.99.

As to “GATGATTGTTCTCCCAGCTGATGAATTAAGCAAATCGAGTAAACAAATTTTCCTAATCTTTCTGTTCAAGCGCCATCTAC”, the binding signal (RPM ratio (pull-down/input)) is 0.581.

As for “GATGATTGTTCTCCCAGCTGATGAATTCGCACGATCGAGTAAACAAATTTTCCTAATCTTTCTGTTCAAGCGCCATCTAC”, the binding signal (RPM ratio (pull-down/input)) worked out at 0.335.

For the sequence “GATGATTGTTCTCCCAGCTGATGAATTGTCGGACTCGAGTAAACAAATTTTCCTAATCTTTCTGTTCAAGCGCCATCTAC”, the binding signal (RPM ratio (pull-down/input)) amounted to 0.306.

“GATGATTGTTCTCCCAGCTGATGAATTAGGGTGATCGAGTAAACAAATTTTCCTAATCTTTCTGTTCAAGCGCCATCTAC”: the binding signal (RPM ratio (pull-down/input)) was found to be 0.498.

Regarding “GATGATTGTTCTCCCAGCTGATGAATTGAAAAATTCGAGTAAACAAATTTTCCTAATCTTTCTGTTCAAGCGCCATCTAC”, the binding signal (RPM ratio (pull-down/input)) is 0.21.

In the case of “GATGATTGTTCTCCCAGCTGATGAATTATAAAAATCGAGTAAACAAATTTTCCTAATCTTTCTGTTCAAGCGCCATCTAC”, the binding signal (RPM ratio (pull-down/input)) is 0.211.

“GATGATTGTTCTCCCAGCTGATGAATTATAATTATCGAGTAAACAAATTTTCCTAATCTTTCTGTTCAAGCGCCATCTAC”: the binding signal (RPM ratio (pull-down/input)) came out at 1.52.

Take “GATGATTGTTCTCCCAGCTGATGAATTGCTAGGTTCGAGTAAACAAATTTTCCTAATCTTTCTGTTCAAGCGCCATCTAC”: the binding signal (RPM ratio (pull-down/input)) stood at 0.589.

For “GATGATTGTTCTCCCAGCTGATGAATTGCGCGATTCGAGTAAACAAATTTTCCTAATCTTTCTGTTCAAGCGCCATCTAC”, the binding signal (RPM ratio (pull-down/input)) came to 1.82.

“GATGATTGTTCTCCCAGCTGATGAATTTTTCAGATCGAGTAAACAAATTTTCCTAATCTTTCTGTTCAAGCGCCATCTAC”: the binding signal (RPM ratio (pull-down/input)) stood at 0.164.

Take “GATGATTGTTCTCCCAGCTGATGAATTCGGACTCTCGAGTAAACAAATTTTCCTAATCTTTCTGTTCAAGCGCCATCTAC”: the binding signal (RPM ratio (pull-down/input)) worked out at 1.44.

As for “GATGATTGTTCTCCCAGCTGATGAATTGTTGCTGTCGAGTAAACAAATTTTCCTAATCTTTCTGTTCAAGCGCCATCTAC”, the binding signal (RPM ratio (pull-down/input)) was 2.32.

As to “GATGATTGTTCTCCCAGCTGATGAATTTTAGTGATCGAGTAAACAAATTTTCCTAATCTTTCTGTTCAAGCGCCATCTAC”, the binding signal (RPM ratio (pull-down/input)) came to 0.559.

With “GATGATTGTTCTCCCAGCTGATGAATTAGATGTGTCGAGTAAACAAATTTTCCTAATCTTTCTGTTCAAGCGCCATCTAC”, the binding signal (RPM ratio (pull-down/input)) was determined as 2.71.

On to “GATGATTGTTCTCCCAGCTGATGAATTGTCTTATTCGAGTAAACAAATTTTCCTAATCTTTCTGTTCAAGCGCCATCTAC”, for which the binding signal (RPM ratio (pull-down/input)) amounted to 0.796.

For “GATGATTGTTCTCCCAGCTGATGAATTAAACGGATCGAGTAAACAAATTTTCCTAATCTTTCTGTTCAAGCGCCATCTAC”, the binding signal (RPM ratio (pull-down/input)) was 0.213.

Consider “GATGATTGTTCTCCCAGCTGATGAATTTAGCGGCTCGAGTAAACAAATTTTCCTAATCTTTCTGTTCAAGCGCCATCTAC”, for which the binding signal (RPM ratio (pull-down/input)) is 0.792.

Consider “GATGATTGTTCTCCCAGCTGATGAATTATTCAAGTCGAGTAAACAAATTTTCCTAATCTTTCTGTTCAAGCGCCATCTAC”, for which the binding signal (RPM ratio (pull-down/input)) was 0.3.

On to “GATGATTGTTCTCCCAGCTGATGAATTACAGTTCTCGAGTAAACAAATTTTCCTAATCTTTCTGTTCAAGCGCCATCTAC”, for which the binding signal (RPM ratio (pull-down/input)) was found to be 0.802.

Consider “GATGATTGTTCTCCCAGCTGATGAATTATAGTTTTCGAGTAAACAAATTTTCCTAATCTTTCTGTTCAAGCGCCATCTAC”, for which the binding signal (RPM ratio (pull-down/input)) was found to be 0.824.

Turning to “GATGATTGTTCTCCCAGCTGATGAATTGACGACCTCGAGTAAACAAATTTTCCTAATCTTTCTGTTCAAGCGCCATCTAC”, the binding signal (RPM ratio (pull-down/input)) worked out at 0.316.

Regarding “GATGATTGTTCTCCCAGCTGATGAATTATGCTATTCGAGTAAACAAATTTTCCTAATCTTTCTGTTCAAGCGCCATCTAC”, the binding signal (RPM ratio (pull-down/input)) worked out at 4.21.
